Measurements published in PMC4336329 (PLoS ONE, 2015).
About 14,000 (4.5%) of roughly 310,000 compounds showed an effect of 50% or more. Effects have a minus sign here. Some of the results follow.

target: human ether-à-go-go-related gene (hERG) potassium channel (human, UniProt Q12809); experiment: primary screen, population patch clamp on CHO cells stably expressing hERG
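Note: peak tail current of the secondary pulse compared with the same well before compound.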

Chain of human ether-à-go-go-related gene (hERG) potassium channel (Q12809 whole entry, looked up): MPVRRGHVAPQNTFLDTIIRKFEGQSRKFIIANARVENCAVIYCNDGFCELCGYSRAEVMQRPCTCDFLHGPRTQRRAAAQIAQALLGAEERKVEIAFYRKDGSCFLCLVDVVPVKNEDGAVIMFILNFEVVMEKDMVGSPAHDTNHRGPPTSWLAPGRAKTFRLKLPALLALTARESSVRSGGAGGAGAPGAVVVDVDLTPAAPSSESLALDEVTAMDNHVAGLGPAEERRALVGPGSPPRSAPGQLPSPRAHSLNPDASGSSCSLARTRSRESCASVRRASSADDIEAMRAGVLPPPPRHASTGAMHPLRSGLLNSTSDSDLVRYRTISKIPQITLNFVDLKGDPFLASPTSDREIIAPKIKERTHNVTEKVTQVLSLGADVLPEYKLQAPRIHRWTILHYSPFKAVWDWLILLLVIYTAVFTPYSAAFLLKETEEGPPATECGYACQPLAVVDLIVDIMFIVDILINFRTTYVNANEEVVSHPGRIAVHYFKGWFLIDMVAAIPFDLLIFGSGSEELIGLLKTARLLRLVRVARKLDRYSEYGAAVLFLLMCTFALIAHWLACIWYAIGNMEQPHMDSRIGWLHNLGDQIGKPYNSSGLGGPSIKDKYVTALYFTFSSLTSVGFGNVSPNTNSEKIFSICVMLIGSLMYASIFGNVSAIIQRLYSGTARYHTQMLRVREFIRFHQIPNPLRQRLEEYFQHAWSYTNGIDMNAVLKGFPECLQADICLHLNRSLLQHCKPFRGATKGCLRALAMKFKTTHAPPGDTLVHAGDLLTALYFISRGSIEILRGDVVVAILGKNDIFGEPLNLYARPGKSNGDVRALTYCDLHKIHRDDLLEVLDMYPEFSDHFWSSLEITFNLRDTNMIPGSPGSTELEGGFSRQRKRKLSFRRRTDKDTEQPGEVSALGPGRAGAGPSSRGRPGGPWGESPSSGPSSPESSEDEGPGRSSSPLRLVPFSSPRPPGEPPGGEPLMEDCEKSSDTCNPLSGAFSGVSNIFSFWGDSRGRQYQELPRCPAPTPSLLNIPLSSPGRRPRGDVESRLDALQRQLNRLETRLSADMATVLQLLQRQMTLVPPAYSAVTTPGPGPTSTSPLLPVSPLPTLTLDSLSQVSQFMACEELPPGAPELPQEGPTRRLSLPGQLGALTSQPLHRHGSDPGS

Compound | hERG current change (%, negative = inhibition) at 10uM [%]
Cc1ccc(-n2c(=O)c3sccc3n(CC(=O)NCc3ccco3)c2=O)cc1 | 3.57
CCCCn1c(SCC(=O)NC2CC2)nc2ccccc2c1=O | -4.62
CCCC(=O)Nc1ccc(C(=O)N/N=C/c2ccc([N+](=O)[O-])o2)cc1 | -20.9
CCN(CCO)c1nc(NCc2ccccc2)c2cnn(C)c2n1 | -7.62
COC(=O)c1nn(-c2ccc3c(c2)CCN3C(C)=O)cc1O | 7.13
Cc1ccc(S(=O)(=O)CC(=O)N2CCCCCC2)cc1 | 13.6
C#CCOCCOCCOCCNc1nc(N2CCOCC2)nc(N2CCN(C(=O)[C@H]([C@@H](C)CC)n3cc([C@@H](N)Cc4ccc(O)cc4)nn3)CC2)n1.Cl | 1.85
C=CCSc1nc2c(c(=O)[nH]1)C(C(C)C)C(C#N)=C(N)O2 (stereo not shown) | 3.05
COc1cc(C(=O)NCC(=O)OCCN2C(=O)c3ccccc3C2=O)cc(OC)c1OC | 4.2
CCn1c(SCC(=O)NCc2ccccc2)nnc1C(CO)NC(=O)c1ccccc1 (stereo not shown) | 13.9
CCOC(=O)c1c(-c2ccc(C)o2)csc1NC(=S)NC(=O)N(C)C | -2.36
CCOCCCNC(=O)COC(=O)/C=C/c1ccc(S(=O)(=O)N2CCc3ccccc32)cc1 | 13.8
CCOC(=O)C1=C(COC(=O)/C=C/c2cc(OC)c(OC)c(OC)c2)NC(=O)NC1C (stereo not shown) | 20.1
CCOC(=O)c1c(NC(=O)CSc2nnnn2-c2ccccc2)sc2c1CC(C)(C)NC2(C)C | -64.3
O=S(=O)(/C=C/c1ccccc1)N1CCN(Cc2ccc3c(c2)OCO3)CC1 | -14.4
COc1ccc(OC)c(/C=N/NC(=O)CCN2CCN(C(c3ccccc3)c3ccccc3)CC2)c1 | -2.39
COc1ccc(S(=O)(=O)N2CCCCCC2)cc1NC(=O)c1ccccc1S(C)(=O)=O | -26.5
CCOC(=O)c1[nH]c2ccc(F)cc2c1NC(=O)CCN1CCSCC1 | -22
COc1ccc(C(=O)NN/C(=N/S(=O)(=O)c2ccc(C)cc2)c2ccccc2)cc1 | -4.03
Cc1ccnc(NS(=O)(=O)c2ccc(NS(=O)(=O)c3ccc([N+](=O)[O-])cc3)cc2)n1 | 8.49
COc1ccc(S(=O)(=O)N(CCc2ccccc2)CC(=O)O)cc1C | 1.65
COc1cc(-c2nc3ccc(C)cn3c2Nc2ccc3c(c2)OCCO3)ccc1O | -18
COc1ccc(C(=O)NCCn2cc(SCC(=O)Nc3nnc(C)s3)c3ccccc32)cc1 | -28.8
O=C(COc1ccccc1F)NCC(c1ccco1)N1CCCC1 (stereo not shown) | 45.9
CCOC(=O)C1CCN(C(=O)C2CCN(S(=O)(=O)c3cc(Cl)ccc3OCC)CC2)CC1 | -11
Cc1ccc2[nH]c(=O)c3cc(C(=O)N(C)C4CCCCC4)sc3c2c1 | 19

Compound | hERG current change (%, negative = inhibition) at 10uM [%]
CN(C)c1ccc(S(=O)(=O)N2CCCCC2)cc1NC(=O)C1=NN(c2ccccc2)C(=O)CC1 | -21.8
Cc1ccc(-c2cc(C(=O)OCn3nnc4ccccc4c3=O)c3ccccc3n2)cc1 | 20.2
CCOc1ccc(C(=O)N(CC)CC(=O)Nc2ccc3c(c2)OCCO3)cc1 | -11.4
Cc1cc(=O)n(C)c(=O)n1CCCCCCOc1ccc([N+](=O)[O-])cc1 | -63.9
COc1ccc(NC(=O)N[C@@H](CCSC)C(=O)O)cc1Cl | -3.45
Cc1cc(C(=O)NP(=O)(N2CCOCC2)N2CCOCC2)c(C)n1-c1ccc(N(C)C)cc1 | 5.48
COCCCN(C(=O)Cn1ncc2c(=O)oc3ccc(C)cc3c21)C(C)c1ccncc1 (stereo not shown) | -45.3
COC(=O)c1ccc(NC(=O)Cn2nnc(-c3cccs3)n2)cc1 | 16.2
Cc1nn(-c2ccc(N3CCOCC3)nn2)c(C)c1CCC(=O)Nc1ccccc1 | 12.6
CC(C)C(NC(=S)Nc1ccccc1)C(=O)O (stereo not shown) | 5.62
Cc1c(Cl)cccc1NC(=S)NCc1ccc2c(c1)OCO2 | -7.41
O=C(CN(C(=O)c1csnn1)c1ccc(Br)cc1)NC1CCCC1 | 3.32
Oc1ccc(/C=N/Nc2ncnc3c2ncn3Cc2ccccc2)cc1O | -16.8
O=C(N/N=C/c1ccc(O)cc1)Nc1cccc2nsnc12 | -23.8
CC(C)(C)NC(=O)CN(Cc1ccc2c(c1)OCO2)C(=O)CNS(=O)(=O)c1ccc(F)cc1 | 13.2
O=C(N/C(=C\c1ccc(Br)cc1)C(=O)N1CCOCC1)c1ccc([N+](=O)[O-])cc1 | -75.5
Fc1cccc(Cl)c1C1Nc2cccc3cccc(c23)N1 | -26.2
CCOC(=O)CCN=Cc1c(O)n(-c2ccc(Br)cc2)c(=O)[nH]c1=O | 0.12
CCCn1c(CN2CCN(C(=O)OCC)CC2)nc2cc(NC(=O)C(C)C)ccc21 | 3.39
O=C(NCCC1=CCCCC1)C(=O)NCC1OCCCN1S(=O)(=O)c1ccc(F)cc1 (stereo not shown) | -9.66
COc1ccc(C(C(=O)NCC2CCCO2)N(C(=O)CNC(=O)c2cccs2)c2ccc(C(C)=O)cc2)cc1OC (stereo not shown) | 22.8
CC(C)N(C(=O)Nc1ccc2nccnc2c1)C(C)C | 9.1
COc1ccc(-n2c(SCC(=O)Nc3ccccc3C)nc(O)c(Cc3ccccc3)c2=O)cc1 | 14.8
O=C(COc1coc(CN2CCN(c3ccccc3)CC2)cc1=O)Nc1ccc(F)cc1 | 4.23
O=C(CN1CCN(S(=O)(=O)c2ccccc2F)CC1)NC1CCCC1 | 6.2
CCN(Cc1ccc(C#CCCO)cc1)CC1CCCN(CCc2cccc(OC)c2)C1 (stereo not shown) | -58.5
